Data taken from PubChem BioAssay AID588453 (National Center for Advancing Translational Sciences (NCATS), 2011).
Hit rate of the full screen: of about 390,000 compounds, about 4,000 (1%) were called active. Inconclusive results, whose numbers are uncertain, are shown with a selection of clear calls. Calls follow the shape of the dose curve; as a rule, active = well fitted inhibition curve with a large enough effect; inconclusive = small, poorly fitted or top-dose-only effect; inactive = no such curve, though single readings can be large or run the other way. Potencies of inconclusive entries are doubtful fits and often do not repeat. The source holds several records for some structures; these can differ, active in one and inactive in another.

Biological target: Thioredoxin reductase 1, cytoplasmic (Rattus norvegicus) (UniProt O89049)
UniProt O89049, sequence (O89049 whole entry, looked up): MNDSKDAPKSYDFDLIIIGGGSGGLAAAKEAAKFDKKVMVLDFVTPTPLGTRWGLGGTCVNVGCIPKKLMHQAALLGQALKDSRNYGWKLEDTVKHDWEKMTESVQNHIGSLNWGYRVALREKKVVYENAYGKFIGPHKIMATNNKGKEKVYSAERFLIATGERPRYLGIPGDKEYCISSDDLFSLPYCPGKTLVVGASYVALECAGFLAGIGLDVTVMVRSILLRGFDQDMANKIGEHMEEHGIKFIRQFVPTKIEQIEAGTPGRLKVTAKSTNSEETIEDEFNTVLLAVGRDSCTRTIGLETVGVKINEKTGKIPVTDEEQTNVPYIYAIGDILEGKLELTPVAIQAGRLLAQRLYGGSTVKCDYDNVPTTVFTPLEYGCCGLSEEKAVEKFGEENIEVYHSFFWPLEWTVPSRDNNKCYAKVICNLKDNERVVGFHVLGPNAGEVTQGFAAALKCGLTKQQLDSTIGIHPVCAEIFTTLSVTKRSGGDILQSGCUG
Assay: qHTS Assay for Inhibitors of Mammalian Selenoprotein Thioredoxin Reductase 1 (TrxR1): qHTS; also: nearly all actives have a fitted effect of over 65% in size
Conditions: recombinant rTrxR1, NADPH fluorescence consumption, selenite substrate; series mostly up to 114 µM; activity change, negative = inhibition: at the top concentration
In short: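 Rat TrxR1 (90 nM in the dispensed reagent) was pre-reduced with 400 uM NADPH for 5 min at room temperature, then incubated with compound for 15 min. After 400 uM selenite was added, NADPH fluorescence (Ex 340/Em 450 nm) was followed for 8 min.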
% is scaled to controls: 0 for no effect and ±100 for the full control effect; potency is read from the fitted curve at half-maximal effect; tags tell the direction and shape of the fitted curve.

Compound | Potency | activity change, negative = inhibition
Cc1ccc(Nc2cc(C(=O)NCCCN3CCOCC3)c3ccccc3n2)cc1C | inconclusive: 79.4 µM [inhibitor, partial curve, poor fit] | –
CC(C)C(=O)Nc1nc(-c2ccc(S(=O)(=O)N3CCOCC3)cc2)cs1 | – | inactive: 26.5%
CSC1=C(C#N)C(=O)NC(c2ccccc2O)S1 (stereo not drawn) | inconclusive: 31.6 µM [inhibitor, single point] | –
CCOC(=O)c1ccc(NC(=O)c2nc[nH]c2C(=O)N2CCC(C)CC2)cc1 | – | inactive: 3.39%
NC(=S)N=Nc1c(O)[nH]c2cc(F)c(F)cc12 | inconclusive: 50.1 µM [inhibitor, partial curve, poor fit] | –
COc1ccc(C(=O)NC(C)c2csc(C)n2)cc1OC1CCN(C(C)=O)CC1 (stereo not drawn) | inconclusive: 89.1 µM [inhibitor, single point] | –
CC1=C(C)CC2C(=O)N(c3cccc4ccccc34)C(=O)C2C1 (stereo not drawn) | active: 14.1 µM | –
Cc1cccc(OCc2nc3ccccc3c(=O)n2N)c1 | – | inactive: 11% [at 57.1 µM]
CC1CCN(Cc2c(O)ccc3c2O/C(=C\c2ccco2)C3=O)CC1 | inconclusive: 20 µM [inhibitor, single point] | –
COc1ccccc1/C=C/C=N\N1CCN(Cc2ccccc2Cl)CC1 | inconclusive: 89.1 µM [inhibitor, partial curve, poor fit] | –
O=C(Nc1ccc([N+](=O)[O-])cc1)Nc1ccon1 | – | inactive: 1.47%
COCC(C)n1c(SCC(=O)N2CC(=O)Nc3ccccc32)nc2ccccc2c1=O (stereo not drawn) | – | inactive: 17.8%
COc1ccc(NC(=O)/C(C#N)=C/C=C/c2ccco2)cc1 | inconclusive: 79.4 µM [inhibitor, partial curve, poor fit] | –
CC1CC2(NC(=O)NC2=O)C(C)CN1C (stereo not drawn) | – | inactive: 1.15%
Cc1nn(C)c(C)c1S(=O)(=O)N1CCCC(C(=O)N2CCN(c3ccc(Cl)cc3)CC2)C1 (stereo not drawn) | – | inactive: -10.7%
O=C1/C(=C\c2ccco2)CCC/C1=C\c1ccco1 | active: 2.24 µM | –
Cc1ccc(OCCn2cc(C(=S)N3CCCC3)c3ccccc32)cc1C | – | inactive: -6.3%
CCOc1ccc(CNC(=O)CCC(=O)N2CC(C)Sc3ccccc32)cc1 (stereo not drawn) | – | inactive: 18.4%
Cc1cc(Cn2nnnc2-c2ccncc2)cc(C)c1O | inconclusive: 50.1 µM [inhibitor, partial curve] | –
Cc1cc(C)n2cc(CSc3nnnn3-c3ccccc3C)nc2n1 | – | inactive: -6.65%
O=Cc1ccc(-c2ccc(C(=O)O)cc2)o1 | – | inactive: 16.7% [at 57.1 µM]
Cc1n[nH]c(=S)n1-c1cccc(Cl)c1 | inconclusive: 2 µM [inhibitor, partial curve, poor fit] | –
COc1ccc(/C=C/c2nnc(NC(=O)COc3cccc(C)c3)s2)cc1 | inconclusive: 20 µM [inhibitor, full curve] | –
Cc1ccc(CN(C(=O)COc2cccc([N+](=O)[O-])c2)c2ccccn2)o1 | inconclusive: 44.7 µM [inhibitor, partial curve] | –
CCOC(=O)C1=C(C)OC(N)=C(C#N)C1c1cc2ccccc2nc1N1CCCCC1 (stereo not drawn) | inconclusive: 35.5 µM [inhibitor, partial curve, poor fit] | –

Compound | Potency | activity change, negative = inhibition
S=C(NN=C1C2CC3CC(C2)CC1C3)Nc1ccccc1 | inconclusive: 1.41 µM [inhibitor, full curve, poor fit] | –
COc1ccc(Cn2nnnc2C(c2cc3ccc(OC)cc3[nH]c2=O)N2CCC(C)CC2)cc1 (stereo not drawn) | inconclusive: 70.8 µM [inhibitor, single point] | –
CCn1c2ccccc2c2cc(NC(=O)c3ccc(Br)o3)ccc21 | active: 17.8 µM | –
O=C(CSc1cccc2cccnc12)N1CCCC1 | inconclusive: 3.98 µM [inhibitor, partial curve, poor fit] | –
CCOC(=O)C(Sc1cc(-c2ccccc2)nc2ncnn12)C(C)=O (stereo not drawn) | inconclusive: 28.2 µM [inhibitor, partial curve, poor fit] | –
C/C(=N\NC(=O)c1ccncc1)c1cc2ccccc2oc1=O | inconclusive: 15.8 µM [inhibitor, full curve] | –
Cc1ccc2nc(CCc3nc4ccc(C)cc4o3)oc2c1 | – | inactive: -8.76%
Cc1ccc2c(c1)/C(=N/O)CCS2 | – | inactive: 10.1% [at 57.1 µM]
O=C(CCl)N1CCN(CC(=O)N2CCCC2)CC1 | inconclusive: 79.4 µM [inhibitor, single point] | –
COc1cccc2cc(C(=O)C3=C(O)C(=O)N(CCN4CCOCC4)C3c3cccc(Cl)c3)oc12 (stereo not drawn) | inconclusive: 70.8 µM [inhibitor, partial curve] | –
COc1ccc(NC(=O)Nc2ccc3[nH]ccc3c2)cc1 | – | inactive: -2.51% [at 57.1 µM]
CCC(Sc1ncccc1C(=O)OC(C)C)C(=O)NCc1ccco1 (stereo not drawn) | inconclusive: 15.8 µM [inhibitor, partial curve] | –
COC(=O)C1=C(C(=O)OC)[N+]2=C3N(C(=O)NC2(C)C)[C@H](CO)C[C@@]32c3ccccc3N(Cc3ccccc3)[C@@H]12 | – | inactive: 30.3%
COc1ccc(C2c3c(n(C)c4ccccc34)C(=O)N2CC(=O)Nc2cccc(F)c2)cc1 (stereo not drawn) | inconclusive: 89.1 µM [inhibitor, single point] | –
COC(=O)c1ccc(CSc2ccc3nnc(-c4ccc(OC)c(OC)c4)n3n2)o1 | inconclusive: 70.8 µM [inhibitor, single point] | –
COc1ccc([C@H]2[C@H](C(=O)OC(C)(C)C)N3N=Cc4ccccc4C3C23C(=O)c2ccccc2C3=O)cc1OC (stereo partly drawn) | inconclusive: 25.1 µM [inhibitor, partial curve, poor fit] | –
Cc1c(Cl)cccc1NS(=O)(=O)c1ccc2c(c1)C1C=CCC1C(c1ccc(C(=O)O)cc1)N2 (stereo not drawn) | inconclusive: 28.2 µM [inhibitor, single point] | –
Nc1c(N2CCCC2)cc(Cl)c2nonc12 | active: 25.1 µM | –
C/C(=N/NS(=O)(=O)c1ccc(F)cc1)c1ccncc1 | inconclusive: 31.6 µM [inhibitor, partial curve, poor fit] | –
CN(C)c1nc2c(Br)c(Br)c(Br)c(Br)c2[nH]1 | inconclusive: 8.44 µM [inhibitor, single point] | –
Cc1cc(C)n(CCC(=O)N2CCN(S(=O)(=O)c3ccc(C)c(C)c3)CC2)n1 | inconclusive: 28.2 µM [inhibitor, single point] | –
O=C(CSc1ncc(S(=O)(=O)c2ccc(Cl)cc2)c(=O)[nH]1)Nc1cccc(C(F)(F)F)c1 | – | inactive: 11.2%
O=C(O)CN1C(=O)/C(=C/c2ccc(N3CCCCC3)o2)SC1=S | active: 28.2 µM | –
Cc1ccc(N=C2NC(=O)/C(=C/C=C/c3ccco3)S2)cc1C | inconclusive: 56.2 µM [inhibitor, partial curve, poor fit] | –
CC(C)Oc1ccc(C(=O)N(Cc2ccco2)Cc2cccs2)cc1 | inconclusive: 89.1 µM [inhibitor, single point] | –

Compound | Potency | activity change, negative = inhibition
COc1ccc(CCNC(=O)CSc2ncc(C(=O)Nc3ccccc3)c(=O)n2C)cc1 | – | inactive: 24%
Oc1ccccc1C1=Nc2ncnn2C(c2ccc(F)cc2)C1 (stereo not drawn) | inconclusive: 15.8 µM [inhibitor, full curve] | –
CCOC(=O)CC(=O)CSc1nnc(Cn2c(=O)sc3ccccc32)n1C | inconclusive: 3.98 µM [inhibitor, full curve, poor fit] | –
O=C(Nc1ccc(C(F)(F)F)cc1)c1ccccc1Br | – | inactive: 16.2% [at 57.1 µM]
Cc1noc(C)c1S(=O)(=O)N1CCC(C(=O)N2CCN(c3cccc(C(F)(F)F)c3)CC2)CC1 | – | inactive: 3%
Cc1ccc2cc(C#N)c(NCCCNC(=O)C3CCCO3)nc2c1 (stereo not drawn) | inconclusive: 89.1 µM [inhibitor, partial curve, poor fit] | –
CC(C)NC(=O)CCC(=O)N1Cc2ccccc2Oc2ncccc21 | – | inactive: 52.2%
CC(=O)n1c(Cl)c(NC(=O)CCl)c2ccccc21 | inconclusive: 12.6 µM [inhibitor, partial curve] | –
CCCCc1[nH]c(=O)c(C#N)c2c1CSC(C)(C)C2 | inconclusive: 50.1 µM [inhibitor, partial curve, poor fit] | –
O=C(CCS(=O)(=O)c1ccccc1)N(CCCN1CCOCC1)c1nc2ccc(F)cc2s1 | active: 7.08 µM | –
O=C(c1ccc(S(=O)(=O)Cc2cc(F)ccc2F)c([N+](=O)[O-])c1)N1CCCC1 | active: 10 µM | –
CCc1cc2c(=O)n(Cc3ccco3)c(SCC(=O)NC3CCS(=O)(=O)C3)nc2s1 (stereo not drawn) | inconclusive: 44.7 µM [inhibitor, single point] | –
CC(CN1c2ccccc2Sc2ccccc21)N(C)C (stereo not drawn) | active: 11.9 µM | –
COC(=O)C1=C(C)N(C)C(=O)NC1c1ccc(O)c(OC)c1 (stereo not drawn) | – | inactive: -1.45%
COc1cc(-c2nnc(SCCOc3cc(C)cc(C)c3)o2)cc(OC)c1OC | inconclusive: 39.8 µM [inhibitor, full curve] | –
COc1ccc(C(=O)O/N=C(\N)c2ccc(Cl)cc2)cc1 | – | inactive: 2.67%
c1ccc(-c2nn3c(-c4ccco4)nnc3s2)nc1 | inconclusive: 35.5 µM [inhibitor, single point] | –
O=C(OCC(=O)c1ccc(Cl)s1)c1cncc(Br)c1 | inconclusive: 79.4 µM [inhibitor, partial curve, poor fit] | –
O=C(/C=C/c1ccco1)N(Cc1ccccc1F)C1CCS(=O)(=O)C1 (stereo not drawn) | active: 28.2 µM | –
CCOC(=O)c1c(-c2ccc(-c3ccccc3)cc2)csc1NC(=O)CNCCN(C)C | – | inactive: -9.07%
O/C(=C\c1nc2ccccc2[nH]1)c1cccs1 | active: 44.7 µM | –
CC(C)[C@H](NC(=O)c1ccc([N+](=O)[O-])cc1Cl)C(=O)N1CCN(C/C=C/c2ccccc2)CC1 | – | inactive: 18.1%
Cc1ccc2nc(/C(C#N)=C\c3ccc(N4CCOCC4)o3)[nH]c2c1 | active: 12.6 µM | –
